This note sets out measurements from paper PMC8985225.

This assay addresses Ca^2+/CaM-dependent kinase II α (CaMKIIα) holoenzyme (rodent) (UniProt P11275). The experiment in a line: negative-stain single-particle EM; purified holoenzymes diluted in 50 mM HEPES pH 7.4, 120 mM KCl, 0.5 mM EGTA (~0.35 μM), stained with uranyl formate; basal state; focused reference-free 2D classification of the hub domain (15 nm mask, no symmetry applied); stoichiometry of the holoenzyme.

Several values for one entry are separate records, joined by “and”; a condition that tells them apart may be missing. Identical values can stand only once.

Consider “Ca^2+/CaM-dependent kinase II α (CaMKIIα) holoenzyme (a stretch of the chain, letters omitted) (enzyme; other documents disagree on this pair)”, for which the percent of holoenzyme particles that are 12-mers turned out to be 88%; the percent of holoenzyme particles that are 14-mers stood at 5.2%; the stoichiometry N was 12 and 14.

One may read the stoichiometry N as a count of units in the complex or per binding partner.
